Measured values reported in the supplement of paper PMC12217912.
The list shows a part of the results. Sequences were assembled here from the parent chain. Values near 0.05 are background.

B1: TEV protease; numbered along this chain (parent)
chain: MGESLFKGPRDYNPISSSICHLTNESDGHTTSLYGIGFGPFIITNKHLFRRNNGTLVVQSLHGVFKVKDTTTLQQHLVDGRDMIIIRMPKDFPPFPQKLKFREPQREERICLVTTNFQTKSMSSMVSDTSCTFPSGDGIFWKHWIQTKDGQCGSPLVSTRDGFIVGIHSASNFTNTNNYFTSVPKNFMELLTNQEAQQWVSGWRLNADSVLWGGHKVFMVKPEEPFQPVKEATQL

Variants of: B1
Test: raw area under fraction-flipped curve 0-4 h after induction (AUC4h, not background-subtracted), DNA-recorder readout of cleavage of the substrate (dimensionless); higher = more cleavage of the substrate by the protease variant
Settings: temperature: 34 °C; time window: 0-4 h after rhamnose induction
Procedure: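 In vivo DNA recorder in E. coli TOP10(DE3) ΔrhaA at 34 °C. Each TEVp single-site mutant (parent TEVp 0) is paired with a single-site variant of the 7-mer TEVs (canonical ENLYFQ|S). The substrate sits between flexible linkers in a Bxb1-sfGFP-TEVs-SsrA fusion, so cleavage stabilises Bxb1 and speeds flipping of a recombination array, read by NGS. The value is the raw area under the fraction-flipped curve over 0-4 h after rhamnose induction (AUC4h), with ≥20 reads per time point. It is not background-subtracted; inactive controls average about 0.047.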
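Note: Bxb1 expression induced with 0.2% (w/v) L-rhamnose at OD600 near 0.5, cultures sampled hourly, flipped fraction per protease–substrate barcode pair counted by paired-end Illumina sequencing.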

| Variant | area with substrate ENAYFQS | area with substrate ENCYFQS | area with substrate ENDYFQS | area with substrate ENFYFQS | area with substrate ENGYFQS | area with substrate ENHYFQS | area with substrate ENIYFQS | area with substrate ENKYFQS | area with substrate ENMYFQS | area with substrate ENNYFQS | area with substrate ENPYFQS | area with substrate ENQYFQS | area with substrate ENRYFQS | area with substrate ENSYFQS | area with substrate ENTYFQS | area with substrate ENVYFQS | area with substrate ENWYFQS | area with substrate ENYYFQS | area with substrate ENEYFQS |
| --- | --- | --- | --- | --- | --- | --- | --- | --- | --- | --- | --- | --- | --- | --- | --- | --- | --- | --- | --- |
| V165E | 0.0522 | 0.0536 | 0.0588 | 0.0551 | 0.0433 | 0.0556 | 0.0508 | 0.0495 | 0.052 | 0.0584 | 0.0623 | 0.0631 | 0.0521 | 0.0659 | 0.0558 | 0.0471 | 0.0664 | 0.0523 | – |
| D161V | 0.0438 | 0.0685 | 0.0574 | 0.0532 | 0.0596 | – | 0.0627 | 0.0528 | 0.0408 | 0.0608 | – | 0.0491 | 0.0544 | 0.0397 | – | 0.0674 | 0.0455 | 0.06 | 0.0562 |
| R160V | 0.0527 | 0.0746 | 0.0657 | 0.0531 | 0.0614 | 0.0573 | 0.0894 | – | – | 0.0718 | 0.0743 | 0.0541 | 0.0681 | 0.0588 | 0.0621 | – | – | – | 0.0564 |
| R160D | 0.062 | 0.0558 | 0.0673 | 0.041 | 0.0661 | – | – | – | 0.0836 | 0.0622 | – | 0.0526 | – | 0.0697 | 0.071 | 0.082 | – | 0.0455 | 0.0672 |
| R160K | 0.0619 | 0.0747 | – | – | 0.063 | 0.0838 | – | – | – | – | – | 0.0557 | – | – | – | 0.0699 | – | – | 0.0592 |
| R160I | 0.0857 | 0.0662 | 0.0674 | 0.0639 | 0.0603 | 0.0743 | – | 0.065 | 0.079 | 0.0542 | 0.0586 | 0.0532 | 0.0326 | 0.0763 | 0.0665 | 0.0792 | 0.0702 | 0.024 | 0.062 |
| I167K | 0.05 | 0.0587 | – | 0.0414 | 0.0561 | 0.0641 | 0.0556 | 0.0601 | 0.0364 | 0.0537 | 0.0495 | 0.0564 | – | 0.051 | 0.0524 | 0.056 | 0.0456 | 0.0477 | 0.0568 |
| T174D | 0.0614 | 0.0641 | 0.0654 | – | 0.0586 | 0.0725 | 0.103 | 0.0769 | – | 0.0617 | 0.0663 | 0.0575 | 0.0432 | 0.0676 | 0.0581 | 0.0667 | – | 0.0561 | 0.0608 |
| H168E | 0.0487 | – | 0.0737 | 0.0625 | 0.0606 | 0.0644 | – | 0.0647 | 0.0624 | 0.0694 | 0.0629 | 0.0659 | 0.0485 | 0.0605 | – | 0.0412 | – | 0.0587 | 0.059 |
| H168M | 0.0521 | 0.0383 | 0.0524 | 0.0755 | 0.0721 | 0.0558 | – | 0.0603 | 0.0662 | 0.0618 | 0.0656 | – | 0.0651 | 0.0519 | 0.0613 | 0.0581 | 0.0455 | 0.06 | 0.0881 |
| H168N | 0.0544 | – | 0.0628 | 0.0519 | 0.0548 | 0.0625 | 0.0622 | 0.0601 | – | – | – | 0.0553 | 0.0657 | 0.0546 | – | – | 0.0631 | – | – |
| H168F | 0.0567 | 0.0505 | 0.0601 | – | 0.051 | 0.0604 | – | 0.059 | 0.0489 | – | 0.0739 | – | – | – | 0.0611 | 0.0556 | – | 0.0548 | 0.0527 |
| H168Y | 0.0581 | 0.052 | 0.0623 | 0.0576 | 0.0637 | 0.0663 | 0.0625 | 0.0703 | – | 0.0626 | – | 0.0587 | 0.069 | 0.0585 | 0.0845 | 0.0919 | 0.0512 | – | 0.065 |
| H168K | 0.0598 | 0.0519 | 0.0617 | 0.0585 | 0.0491 | 0.0623 | 0.061 | – | 0.0574 | – | 0.087 | – | – | 0.0598 | 0.0397 | – | – | 0.055 | – |
| H168D | 0.0463 | 0.0575 | 0.062 | 0.0486 | 0.0674 | 0.0651 | 0.0587 | – | 0.0579 | 0.0606 | – | 0.0618 | 0.0652 | 0.0635 | – | 0.0638 | – | 0.0564 | 0.059 |
| H168L | 0.0304 | 0.084 | – | 0.06 | – | 0.0569 | – | 0.0646 | 0.059 | 0.0612 | – | 0.058 | 0.0652 | 0.0606 | – | 0.0825 | 0.0666 | – | 0.0662 |
| H168A | 0.0689 | – | 0.0593 | 0.0561 | – | – | – | – | – | – | – | – | 0.0544 | – | 0.0542 | 0.0736 | 0.0572 | – | 0.0621 |
| H168G | 0.0653 | 0.0621 | 0.0669 | – | – | 0.0492 | – | – | – | 0.0811 | – | 0.0484 | 0.0584 | 0.0614 | – | 0.0575 | – | – | 0.0688 |
| H168I | 0.0559 | 0.0547 | 0.0536 | 0.032 | 0.0603 | – | 0.0516 | 0.0558 | – | – | 0.0692 | 0.0557 | 0.0505 | 0.0594 | 0.072 | 0.0662 | 0.0597 | – | 0.0569 |
| T176C | 0.0659 | 0.0562 | 0.0662 | 0.0611 | 0.067 | 0.0586 | – | – | – | 0.0381 | 0.0636 | 0.054 | 0.0609 | 0.0583 | 0.0586 | 0.0782 | – | – | 0.0457 |
| T176M | 0.0612 | 0.0924 | 0.0698 | 0.0619 | 0.0506 | 0.0532 | – | 0.0529 | – | 0.0612 | 0.0497 | 0.0595 | 0.0583 | 0.0545 | – | 0.0636 | – | – | 0.0653 |
| T176I | 0.0591 | – | 0.0583 | 0.0579 | 0.0643 | 0.109 | 0.0691 | 0.061 | 0.0662 | 0.0741 | 0.0593 | 0.0622 | 0.0559 | 0.0251 | 0.0523 | 0.0561 | 0.0518 | – | 0.0606 |
| T176F | 0.0415 | 0.026 | 0.056 | 0.0529 | – | 0.0595 | – | – | – | – | – | – | 0.0528 | 0.0458 | 0.067 | 0.0545 | 0.0667 | – | 0.0504 |
| G162C | 0.0672 | – | 0.0564 | 0.0543 | 0.0601 | 0.0617 | 0.11 | – | – | – | 0.055 | 0.0512 | 0.0495 | 0.0639 | 0.0465 | 0.0698 | 0.0092 | 0.0567 | 0.0527 |
| N175K | 0.063 | 0.0588 | 0.0737 | 0.0414 | – | 0.0578 | 0.0852 | 0.0683 | 0.0577 | 0.067 | 0.0623 | 0.0702 | 0.0675 | 0.0529 | 0.0543 | 0.0608 | 0.055 | – | 0.0613 |
